The whole screen tested about 220,000 compounds, of which about 16,000 (7.3%) were called active. The shares of active, inactive and inconclusive entries below differ from those in the screen. Calls follow the shape of the dose curve; as a rule, active = well fitted inhibition curve with a large enough effect (not every such curve was filed as active); inconclusive = small, poorly fitted or top-dose-only effect, or another doubt; inactive = no such curve, though single readings can be large or run the other way. No potency is given beside an inconclusive call; the fits are too rough.
Each molecule was assayed against Aldehyde dehydrogenase 1A1 (Homo sapiens) (UniProt P00352) (assay: qHTS Assay for Inhibitors of Aldehyde Dehydrogenase 1 (ALDH1A1)). Conditions: Purified ALDH1A1, NADH fluorescence, propionaldehyde substrate; series mostly up to 75.3 µM; activity, negative = inhibition: at the top concentration.
Chain of UniProt P00352 (P00352 whole entry, looked up): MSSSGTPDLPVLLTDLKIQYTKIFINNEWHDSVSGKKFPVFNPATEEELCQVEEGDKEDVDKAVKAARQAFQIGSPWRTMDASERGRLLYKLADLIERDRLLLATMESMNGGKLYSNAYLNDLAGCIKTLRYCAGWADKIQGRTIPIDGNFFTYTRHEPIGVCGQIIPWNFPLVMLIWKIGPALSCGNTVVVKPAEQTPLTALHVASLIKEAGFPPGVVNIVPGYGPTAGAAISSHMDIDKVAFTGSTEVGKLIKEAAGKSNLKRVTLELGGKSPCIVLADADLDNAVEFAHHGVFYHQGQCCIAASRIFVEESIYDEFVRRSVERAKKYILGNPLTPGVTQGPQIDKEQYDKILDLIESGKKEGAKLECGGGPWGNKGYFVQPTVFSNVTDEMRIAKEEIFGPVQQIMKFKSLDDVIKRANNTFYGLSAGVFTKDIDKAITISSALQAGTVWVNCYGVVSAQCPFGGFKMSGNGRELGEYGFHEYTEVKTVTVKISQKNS

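For activity, negative = inhibition in this document: plate controls were no enzyme wells and a reference inhibitor.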
Potency is read from the fitted curve at half-maximal effect; tags tell the direction and shape of the fitted curve.

| SMILES | activity, negative = inhibition | Potency |
| --- | --- | --- |
| NS(=O)(=O)c1ccc(CCNC(=O)c2cccnc2)cc1 | inactive: 1.65% | – |
| COc1ccc(CSc2nnc(Cc3sc(-c4ccccc4)nc3-c3ccccc3)o2)cc1 | inactive: -2.86% | – |
| CCN=C1SC(CC(=O)NCc2ccccc2)C(=O)N1CC (stereo not given) | – | inconclusive [inhibitor, partial curve] |
| Cc1ccc(NC(=O)c2ccc(CNc3c(N4CCOCC4)c(=O)c3=O)cc2)cc1 | – | inconclusive [inhibitor, single point] |
| COC(CN1C(=O)C(O)=C(C(C)=O)C1c1ccccn1)OC (stereo not given) | inactive: 4.78% | – |
| NC(=S)N/N=C1\CCOc2ccc(Cl)cc21 | inactive: 1.24% | – |
| Cc1nc2cc3c(cc2c(C)c1C(=O)OC(C)C)OCO3 | – | inconclusive [inhibitor, partial curve] |
| Cc1nc2c(o1)CCc1ccccc1C2N1CCN(C)CC1 (stereo not given) | – | inactive |
| CCc1ccc(/C(C)=N/NC(=O)c2ccccn2)cc1 | inactive: -3.06% | – |
| O=c1oc2ccccc2c(NCCO)c1[N+](=O)[O-] | inactive: 5.75% | – |
| O=C(NCCCn1ccnc1)c1cc(-c2ccc3c(c2)OCO3)on1 | inactive: 4.49% | – |
| Cc1cc(C(=O)CN2C(=O)NC3(CCCCC3)C2=O)c(C)n1-c1ccc2c(c1)OCO2 | – | inconclusive [inhibitor, single point] |
| O=C(Nc1cccc(C(F)(F)F)c1)C1C2CC3OC(=O)C1C3C2 (stereo not given) | – | inconclusive [inhibitor, single point] |
| CCOC(=O)c1cnc2ccc(C)cc2c1OCc1cc(F)cc(F)c1 | – | active: 14.1 µM |
| COc1ccc(C(C)=O)cc1CSc1nc2ccccc2c(=O)n1-c1ccccc1 | – | inconclusive [inhibitor, full curve] |
| CNC(=O)COC(=O)c1ccc(Cl)c(S(=O)(=O)N2CCCC2)c1 | – | inconclusive [inhibitor, partial curve, poor fit] |
| COCCNC(=O)Cn1cnc2ccc(S(=O)(=O)N3CCC(C)CC3)cc2c1=O | – | inconclusive [inhibitor, single point] |
| CC(C#N)(Nc1ccc(Cl)cc1)c1cccnc1 (stereo not given) | inactive: 11.1% | – |
| CC(C)c1nc(-c2ccc([N+](=O)[O-])cc2)cs1 | inactive: -5.37% | – |
| Cc1c(NC(=O)C(C)n2cc([N+](=O)[O-])cn2)c(=O)n(-c2ccccc2)n1C (stereo not given) | inactive: 1.46% | – |
| CCCCSc1nnc2c(n1)OC(C(=O)c1ccccc1)Nc1ccccc1-2 (stereo not given) | – | active: 20 µM |
| Cc1cc(C)cc(C(=O)Nc2ccc(N3CCN(S(C)(=O)=O)CC3)cc2)c1 | inactive: 6.08% | – |
| Cc1oc(-c2ccc(F)cc2)cc1-c1nn2c(-c3ccoc3C)nnc2s1 | – | inconclusive [inhibitor, single point] |
| CCCn1c(SCC(=O)NCc2ccc(C)cc2)n[nH]c1=O | inactive: 19.3% | – |
| O=C(CN1C(=O)S/C(=C\C=C\c2ccccc2)C1=O)Nc1ccc(O)cc1 | inactive: 6% | – |

| SMILES | activity, negative = inhibition | Potency |
| --- | --- | --- |
| COc1ccc(NC(=O)N2CC[C@@]3(CCCNC3)C2)cc1 | – | active: 14.1 µM |
| CN(C)c1nc(Oc2ccc(N)cc2)nc(N(C)C)n1 | – | inconclusive [inhibitor, single point] |
| Cc1ccc(F)cc1NC(=O)c1ccc(NS(=O)(=O)c2ccc(Br)s2)cc1 | – | inconclusive [inhibitor, partial curve, poor fit] |
| O=C(O)CSc1nnc(SCc2cccc3ccccc23)s1 | – | inconclusive [inhibitor, single point] |
| CCn1c(SCC(=O)Nc2nc3c(s2)CCCC3)nnc1-c1ccccc1 | – | inconclusive [inhibitor, partial curve] |
| Cn1cc(C(=O)NC2CCCCCC2)c(=O)c2cc(S(=O)(=O)N3CCCC3)ccc21 | – | inconclusive [inhibitor, full curve] |
| O=C1CC(Nc2ccc(N3CCOCC3)cc2)C(=O)N1C1CCCCC1 (stereo not given) | – | inconclusive [inhibitor, single point] |
| Cc1ccc(-c2nc3c(c(=O)[nH]c(=O)n3Cc3ccccc3)n2Cc2ccccc2)o1 | – | inconclusive [inhibitor, partial curve] |
| CCOc1ccccc1-n1c(SCC(=O)Nc2ccc(CC)cc2)nc2n[nH]c(C)c2c1=N | – | inconclusive [inhibitor, partial curve] |
| Cc1cccc(NNC(N)=S)c1 | – | active: 8.91 µM |
| CC(C)C(NC(=O)CN(c1cccc(F)c1)S(C)(=O)=O)C(C)C | – | active: 35.5 µM |
| c1ccc(CCC2CCCCN2Cc2cn[nH]c2-c2cc3ccccc3o2)nc1 (stereo not given) | inactive: 1.39% | – |
| COc1ccc(-n2nc3c(c2NC(=O)c2ccc(S(=O)(=O)N4CCOCC4)cc2)CS(=O)C3)cc1 (stereo not given) | – | active: 2.51 µM |
| CCC(/C=N/NC(=O)CCCCC(=O)N/N=C/C(CC)CC)CC | inactive: 10.2% | – |
| Cc1ccc(NC(=O)Nc2ccc(Cl)cn2)cc1 | inactive: 7.4% | – |
| O=C(c1coc(=O)c(Br)c1)N1CCCc2ccccc21 | – | inconclusive [inhibitor, partial curve] |
| NC(=O)CSc1ncnc2c1oc1ccccc12 | – | inconclusive [inhibitor, single point] |
| O=C(O)C1CCN(C(=O)c2csc(-c3ccc4c(c3)CCO4)n2)CC1 | – | inconclusive [inhibitor, single point] |
| C/C(=N\NC(=O)C(C)Nc1cccc(Cl)c1)c1ccc([N+](=O)[O-])cc1 (stereo not given) | inactive: 2.3% | – |
| Cc1cc(N/N=C/c2ccc(O)cc2)nc(NS(=O)(=O)c2ccccc2)n1 | – | inconclusive [inhibitor, single point] |
| O=C(Cn1cc(CCO)nn1)N1CCNCC1 | inactive: -3.08% | – |
| CC(C)(C)NC(=O)c1nc2nc(-c3ccccc3)cc(C(F)(F)F)n2n1 | – | inconclusive [inhibitor, partial curve] |
| O=C(c1ccc(NS(=O)(=O)c2cccc3cccnc23)cc1)N1CCCCC1 | – | inconclusive [inhibitor, single point] |
| CC/C(=N\NC(=O)CSc1ncccn1)c1ccc2c(c1)OCCO2 | – | inconclusive [inhibitor, single point] |
| O=C1OC2(c3cc(Br)c(O)c(Br)c3Oc3c2cc(Br)c(O)c3Br)c2c(Cl)c(Cl)c(Cl)c(Cl)c21 | – | active: 25.1 µM |
